Results from patent US7238658B2 (Genentech, Inc., priority 2001, dated 2007).

Legend:
[1] = target: T1, IGF-1 (Homo sapiens, UniProt P05019); test: NMR diffusion-based measurement of detergent binding to IGF-1
[2] = system: IGF-1R-mediated signaling; test: Cell-based receptor activation assay
From the text: Such drugs include orally bioavailable therapy for metabolic disease such as diabetes.

[3] = target: IGF-1 binding to IGFBP-1 (Homo sapiens, UniProt P05019); test: IGF-1 phage ELISA: residual binding of IGF-1 on phage to immobilized IGFBP-1
Chain of IGF-1 binding to IGFBP-1 (P05019 49-118): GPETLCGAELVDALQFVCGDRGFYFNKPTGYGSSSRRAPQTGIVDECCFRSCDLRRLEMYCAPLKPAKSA

[4] = target: IGF-1 binding to IGFBP-3 (Homo sapiens, UniProt P05019); test: IGF-1 phage ELISA: residual binding of IGF-1 on phage to immobilized IGFBP-3
Chain of IGF-1 binding to IGFBP-3 (P05019 49-118): as above

[5] = target: T1, IGF-1; test: NMR chemical shift titration of detergent into IGF-1 solution; conditions: titration into 0.5 mM IGF-1 solution

T1 sequence (P05019 49-118): as above

Kd ([1]; read-out: Kd for interaction of detergent with IGF-1 (overall NMR-based estimate), estimate over three protein concentrations): 300 µM and ~300 µM
Kd ([1]; read-out: Kd for interaction of detergent with IGF-1, 0.125 mM IGF-1, 2 molar equivalents of detergent, 40° C., pH 6.5): 430 µM
Kd ([1]; read-out: Kd for interaction of detergent with IGF-1, 0.25 mM IGF-1, 2 molar equivalents of detergent, 40° C., pH 6.5): 440 µM
Kd ([1]; read-out: Kd for interaction of detergent with IGF-1, 0.5 mM IGF-1, 2 molar equivalents of detergent, 40° C., pH 6.5): 220 µM
inhibition of IGFBP-1 binding to IGF-1 (preliminary results, Example 1) ([3]; preliminary results): does not inhibit binding
IC50 ([3]; read-out: IC50, inhibition of IGF-1 on phage binding to IGFBP-1, plate-based ELISA, CMC 1.4 mM is upper limit on curve): 480 ± 170 µM
inhibition of IGFBP-3 binding to IGF-1 (preliminary results, Example 1) [4]: does not inhibit binding
affinity for IGF-1 from chemical shift changes [5]: submillimolar
SMILES: C[C@H](CCC(=O)N(CCCNC(=O)[C@H](O)[C@@H](O)[C@H](O)[C@H](O)CO)CCCNC(=O)[C@H](O)[C@@H](O)[C@H](O)[C@H](O)CO)[C@H]1CC[C@H]2[C@@H]3CC[C@@H]4C[C@H](O)CC[C@]4(C)[C@H]3C[C@H](O)[C@]12C
inhibition of IGF-1R-mediated signaling [2]: does not inhibit

Where “and” joins values, the source holds several entries; their conditions need not be identical. Identical values can stand only once. Like-named read-outs stand apart in the source and are kept apart here.
